Reference: article PMC4336329 (PLoS ONE, 2015)
The whole screen tested about 310,000 compounds, of which about 2,200 (0.71%) showed an effect of 50% or more. The effect is printed as a negative number. Some of the results follow.

Biological target: human ether-à-go-go-related gene (hERG) potassium channel (human, UniProt Q12809)
Test: primary screen, population patch clamp on CHO cells stably expressing hERG

human ether-à-go-go-related gene (hERG) potassium channel, sequence (Q12809 whole entry, looked up): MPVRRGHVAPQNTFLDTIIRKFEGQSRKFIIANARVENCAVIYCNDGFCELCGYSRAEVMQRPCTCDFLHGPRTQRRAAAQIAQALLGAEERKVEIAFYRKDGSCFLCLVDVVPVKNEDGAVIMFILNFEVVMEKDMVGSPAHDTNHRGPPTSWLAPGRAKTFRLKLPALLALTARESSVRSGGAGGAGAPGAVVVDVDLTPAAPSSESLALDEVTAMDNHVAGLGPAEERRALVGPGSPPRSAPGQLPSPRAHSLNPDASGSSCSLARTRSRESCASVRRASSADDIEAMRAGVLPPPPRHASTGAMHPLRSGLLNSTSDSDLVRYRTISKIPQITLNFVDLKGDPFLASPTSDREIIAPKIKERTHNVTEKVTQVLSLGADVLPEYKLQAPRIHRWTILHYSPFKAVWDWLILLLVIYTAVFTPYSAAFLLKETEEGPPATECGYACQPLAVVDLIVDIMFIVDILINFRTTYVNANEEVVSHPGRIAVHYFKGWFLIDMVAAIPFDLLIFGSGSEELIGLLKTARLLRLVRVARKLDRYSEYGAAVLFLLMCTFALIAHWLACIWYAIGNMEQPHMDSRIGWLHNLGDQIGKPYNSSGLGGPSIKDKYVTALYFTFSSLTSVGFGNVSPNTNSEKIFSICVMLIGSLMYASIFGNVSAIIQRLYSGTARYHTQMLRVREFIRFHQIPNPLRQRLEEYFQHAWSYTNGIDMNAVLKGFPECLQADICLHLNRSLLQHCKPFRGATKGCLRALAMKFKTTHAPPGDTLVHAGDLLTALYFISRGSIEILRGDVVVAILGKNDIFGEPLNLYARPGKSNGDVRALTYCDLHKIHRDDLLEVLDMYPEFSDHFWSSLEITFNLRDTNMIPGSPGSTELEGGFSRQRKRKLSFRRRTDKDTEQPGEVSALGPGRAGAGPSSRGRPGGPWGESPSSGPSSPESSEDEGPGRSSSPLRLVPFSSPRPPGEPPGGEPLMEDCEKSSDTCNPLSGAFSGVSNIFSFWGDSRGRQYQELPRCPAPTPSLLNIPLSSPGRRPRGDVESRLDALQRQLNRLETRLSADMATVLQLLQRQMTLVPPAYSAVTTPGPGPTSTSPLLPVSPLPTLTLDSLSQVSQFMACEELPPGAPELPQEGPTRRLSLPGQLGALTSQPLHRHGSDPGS

Going from `Cn1c(=O)c(-c2ccccc2N)nc2ccccc21` to `O=C1c2ccccc2C(=O)N1CCCc1nc(-c2ccccc2)no1`, the “hERG current change (%, negative = inhibition) at 1uM” value falls from 8.43% to 1.14%.

Going from `CCOc1ccc(NC(=O)CCNC(=O)C2CCN(S(=O)(=O)c3ccccc3)CC2)cc1` to `NC(=O)C1CCN(C(=O)c2ccc(Oc3ccccc3)cc2)CC1`, the “hERG current change (%, negative = inhibition) at 1uM” value falls from 9.17% to -3.95%.

First: Cc1nc2ccc(NC(=O)c3cccc(S(=O)(=O)N4CC(C)OC(C)C4)c3)cc2s1 (stereo not drawn)
Second: COc1ccc(S(=O)(=O)NCc2cccnc2)cc1NC(=O)c1ccc(Cl)cc1
The “hERG current change (%, negative = inhibition) at 1uM” value of the first is higher: 12% for the first, -6.45% for the second.

Compared with `CN(CCOc1cccc2ccccc12)Cc1ccccc1.O=C(O)C(=O)O`, `CCOc1ccccc1NC(=O)Cn1c(=O)c2ccccc2n(CC)c1=O` is lower in “hERG current change (%, negative = inhibition) at 1uM” value: 8.2% for the first, -4.54% for the second.

Compared with `COC(=O)c1ccccc1NC(=O)N1CSC[C@H]1C(=O)OC`, `COc1ccccc1CNC(=O)c1ccccc1NS(C)(=O)=O` is lower in “hERG current change (%, negative = inhibition) at 1uM” value: 13.1% for the first, -0.328% for the second.

Compared with `Cc1cc(C(=O)COC(=O)Cc2n[nH]c(=O)c3ccccc23)c(C)n1-c1ccc2c(c1)OCCO2`, `Cc1ccc(N(Cc2cc3ccccc3[nH]c2=O)C(=O)c2cccs2)cc1C` is lower in “hERG current change (%, negative = inhibition) at 1uM” value: 11.7% for the first, 11.4% for the second.

Compared with `CC(=O)OCC1OC(n2ncc(=O)n(Cc3ccccc3)c2=O)C(OC(C)=O)C1OC(C)=O` (stereo not drawn), `CN(C(=O)COC(=O)c1ccc(Br)c([N+](=O)[O-])c1)c1c(N)n(Cc2ccccc2)c(=O)[nH]c1=O` is lower in “hERG current change (%, negative = inhibition) at 1uM” value: 15.1% for the first, 6.43% for the second.

Compared with `C=CC(n1cncn1)C(O)(c1ccccc1)c1ccccc1` (stereo not drawn), `CC(c1ccccc1)N(CCC(c1ccccc1)C1CCOC(C)(C)C1)C(=O)c1ccco1` (stereo not drawn) is lower in “hERG current change (%, negative = inhibition) at 1uM” value: 11.7% for the first, 0.237% for the second.

Compared with `CC(=O)Nc1cccc(CNCc2cccc(NC(C)=O)c2)c1`, `COc1ccc(S(=O)(=O)Nc2ccc(OCC(=O)O)cc2)c2ccccc12` is higher in “hERG current change (%, negative = inhibition) at 1uM” value: 1.47% for the first, 10.9% for the second.

Going from `CC(C)(C)OC(=O)NCc1nc(N)n[nH]1` to `CCC(CC)C(=O)c1c[nH]c(C(=O)OC)c1`, the “hERG current change (%, negative = inhibition) at 1uM” value falls from 16% to 11.3%.

First: CC(C)(C)NC(=O)COC(=O)c1ccc(NC(=O)CC#N)cc1
Second: NC(=O)c1ccc(NC(=O)COC(=O)/C=C/c2cn(-c3ccccc3)nc2-c2cccnc2)cc1
The “hERG current change (%, negative = inhibition) at 1uM” value of the first is higher: 19.3% for the first, 4.14% for the second.

Compared with `COc1ccc(C2C3C(C)=NN=C3CC(C)(O)C2C(C)=O)cc1` (stereo not drawn), `CNC(=O)c1nc(C)n(-c2ccc([N+](=O)[O-])cc2)n1` is higher in “hERG current change (%, negative = inhibition) at 1uM” value: 13.4% for the first, 22% for the second.

First: CN(Cc1ccon1)C(=O)CC1C(=O)NCCN1CC(C)(C)C (stereo not drawn)
Second: CCc1nccn1CCC(=O)NC1CC(C)(C)Cc2c1cnn2-c1cccc(F)c1 (stereo not drawn)
The “hERG current change (%, negative = inhibition) at 1uM” value of the first is lower: 7.47% for the first, 7.83% for the second.

Going from `O=C(O)/C=C/C(=O)NCC1CCC(CNC(=O)/C=C/C(=O)O)CC1` (stereo not drawn) to `COc1ccc(CN2CCN(S(=O)(=O)c3ccc(F)cc3)CC2)cc1OC.O=C(O)C(=O)O`, the “hERG current change (%, negative = inhibition) at 1uM” value rises from 7.54% to 8.64%.

Going from `O=C(NC1(C(F)(F)F)NC(=O)N(Cc2cccnc2)C1=O)c1ccc(F)cc1` (stereo not drawn) to `Cc1ccc2nc3c(cc(C#N)c(=N)n3Cc3cccnc3)c(=O)n2c1`, the “hERG current change (%, negative = inhibition) at 1uM” value falls from -6.39% to -19.4%.

First: CC(C)C1C(C#N)=C(N)Oc2n[nH]c(-c3ccccc3)c21 (stereo not drawn)
Second: CC(C)Sc1nc2c(c(=O)[nH]c(=O)n2C)n1Cc1ccccc1
The “hERG current change (%, negative = inhibition) at 1uM” value of the first is higher: 10.7% for the first, -3.17% for the second.

Compared with `CCn1c(SC(C)C(=O)NC2CCCc3ccccc32)nnc1-c1cccs1` (stereo not drawn), `CCc1nc2cccnc2n1-c1ccc(CC(=O)NC(C)CC)cc1` (stereo not drawn) is higher in “hERG current change (%, negative = inhibition) at 1uM” value: -0.657% for the first, 12% for the second.

Going from `Cc1nc(Cl)c(C(=O)NC(=O)Nc2cccc(C(F)(F)F)c2)c(C)c1[N+](=O)[O-]` to `Cc1cccc(-n2c(O)c(C=Nc3ccc(Br)cn3)c(=O)[nH]c2=O)c1`, the “hERG current change (%, negative = inhibition) at 1uM” value rises from 7.05% to 12.5%.

Compared with `COc1ccc(S(=O)(=O)CCC(=O)N2CCN(c3ccc(F)cc3)CC2)cc1`, `O=C(CC(c1ccc(F)cc1)c1ccco1)N1CCOCC1` (stereo not drawn) is higher in “hERG current change (%, negative = inhibition) at 1uM” value: -18.6% for the first, -3.29% for the second.

Going from `CC1CCc2c(sc3nc(CSc4n[nH]c(N)n4)[nH]c(=O)c23)C1` (stereo not drawn) to `O=C1CCC(C(=O)N2CCN(c3ccccc3)CC2)CN1CC1CCCCC1` (stereo not drawn), the “hERG current change (%, negative = inhibition) at 1uM” value rises from -2.59% to -1.01%.

Compared with `COc1ccccc1N(C(=O)c1ccco1)C(C(=O)NC1CCCC1)c1ccc(N2CCOCC2)cc1` (stereo not drawn), `Cc1ccc(/C=C/C(=O)N2CCN(S(=O)(=O)c3cccs3)CC2)o1` is lower in “hERG current change (%, negative = inhibition) at 1uM” value: 5.57% for the first, 3.34% for the second.
